For 32 sequences, binding signal (RPM ratio (pull-down/input)) results are on record in paper PMC12820563.

This is one part of the list. The list includes weakly bound sequences.

For the assay, the target named is T1, MBP-FoxP3dN (UniProt Q99JB6).
T1 sequence: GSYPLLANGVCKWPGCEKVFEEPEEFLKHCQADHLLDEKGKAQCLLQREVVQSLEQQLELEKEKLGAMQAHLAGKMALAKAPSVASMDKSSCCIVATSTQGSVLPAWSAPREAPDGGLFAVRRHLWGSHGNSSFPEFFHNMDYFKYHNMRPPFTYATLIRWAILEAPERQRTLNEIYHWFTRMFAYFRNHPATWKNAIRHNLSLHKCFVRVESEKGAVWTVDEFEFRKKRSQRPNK
As to the kind of experiment: PD-seq (MBP pull-down with sequencing). The conditions noted are these: 20 mM Tris-HCl pH 7.5, 100 mM NaCl, 1.5 mM MgCl2, 0.4 uM protein, 0.1 uM dsDNA library, 30 min, room temperature, amylose pull-down; high values mean tight binding; double strand, one strand shown.
Consider “GATGATTGTTCTCCCAGCTGATGAATTGTACAACTCGAGTAAACAAATTTTCCTAATCTTTCTGTTCAAGCGCCATCTAC”, for which the binding signal (RPM ratio (pull-down/input)) was found to be 0.446.

Turning to “GATGATTGTTCTCCCAGCTGATGAATTGTACGGATCGAGTAAACAAATTTTCCTAATCTTTCTGTTCAAGCGCCATCTAC”, the binding signal (RPM ratio (pull-down/input)) was found to be 0.269.

For “GATGATTGTTCTCCCAGCTGATGAATTTCAGTACTCGAGTAAACAAATTTTCCTAATCTTTCTGTTCAAGCGCCATCTAC”, the binding signal (RPM ratio (pull-down/input)) is 0.341.

On to “GATGATTGTTCTCCCAGCTGATGAATTGGCAATCTCGAGTAAACAAATTTTCCTAATCTTTCTGTTCAAGCGCCATCTAC”, for which the binding signal (RPM ratio (pull-down/input)) was 1.21.

For the sequence “GATGATTGTTCTCCCAGCTGATGAATTTGCAGCTTCGAGTAAACAAATTTTCCTAATCTTTCTGTTCAAGCGCCATCTAC”, the binding signal (RPM ratio (pull-down/input)) came to 1.22.

With “GATGATTGTTCTCCCAGCTGATGAATTAGTTAGGTCGAGTAAACAAATTTTCCTAATCTTTCTGTTCAAGCGCCATCTAC”, the binding signal (RPM ratio (pull-down/input)) was 1.51.

On to “GATGATTGTTCTCCCAGCTGATGAATTTCCAACTTCGAGTAAACAAATTTTCCTAATCTTTCTGTTCAAGCGCCATCTAC”, for which the binding signal (RPM ratio (pull-down/input)) is 0.278.

For “GATGATTGTTCTCCCAGCTGATGAATTGAACTTGTCGAGTAAACAAATTTTCCTAATCTTTCTGTTCAAGCGCCATCTAC”, the binding signal (RPM ratio (pull-down/input)) amounted to 0.381.

Regarding “GATGATTGTTCTCCCAGCTGATGAATTTTGGGACTCGAGTAAACAAATTTTCCTAATCTTTCTGTTCAAGCGCCATCTAC”, the binding signal (RPM ratio (pull-down/input)) came out at 0.331.

With “GATGATTGTTCTCCCAGCTGATGAATTATAAACCTCGAGTAAACAAATTTTCCTAATCTTTCTGTTCAAGCGCCATCTAC”, the binding signal (RPM ratio (pull-down/input)) is 0.507.

As for “GATGATTGTTCTCCCAGCTGATGAATTCCACACTTCGAGTAAACAAATTTTCCTAATCTTTCTGTTCAAGCGCCATCTAC”, the binding signal (RPM ratio (pull-down/input)) amounted to 0.363.

Turning to “GATGATTGTTCTCCCAGCTGATGAATTCTGTAGTTCGAGTAAACAAATTTTCCTAATCTTTCTGTTCAAGCGCCATCTAC”, the binding signal (RPM ratio (pull-down/input)) turned out to be 2.64.

For the sequence “GATGATTGTTCTCCCAGCTGATGAATTATGAGAGTCGAGTAAACAAATTTTCCTAATCTTTCTGTTCAAGCGCCATCTAC”, the binding signal (RPM ratio (pull-down/input)) is 0.397.

In the case of “GATGATTGTTCTCCCAGCTGATGAATTTACGGAATCGAGTAAACAAATTTTCCTAATCTTTCTGTTCAAGCGCCATCTAC”, the binding signal (RPM ratio (pull-down/input)) is 0.368.

Consider “GATGATTGTTCTCCCAGCTGATGAATTTAAGGGTTCGAGTAAACAAATTTTCCTAATCTTTCTGTTCAAGCGCCATCTAC”, for which the binding signal (RPM ratio (pull-down/input)) stood at 0.431.

Turning to “GATGATTGTTCTCCCAGCTGATGAATTAGAAGCGTCGAGTAAACAAATTTTCCTAATCTTTCTGTTCAAGCGCCATCTAC”, the binding signal (RPM ratio (pull-down/input)) is 0.488.

Consider “GATGATTGTTCTCCCAGCTGATGAATTGGACCCATCGAGTAAACAAATTTTCCTAATCTTTCTGTTCAAGCGCCATCTAC”, for which the binding signal (RPM ratio (pull-down/input)) was 0.274.

“GATGATTGTTCTCCCAGCTGATGAATTACGAATGTCGAGTAAACAAATTTTCCTAATCTTTCTGTTCAAGCGCCATCTAC”: the binding signal (RPM ratio (pull-down/input)) turned out to be 0.705.

On to “GATGATTGTTCTCCCAGCTGATGAATTGAGTCATTCGAGTAAACAAATTTTCCTAATCTTTCTGTTCAAGCGCCATCTAC”, for which the binding signal (RPM ratio (pull-down/input)) worked out at 0.966.

Consider “GATGATTGTTCTCCCAGCTGATGAATTCGTCCATTCGAGTAAACAAATTTTCCTAATCTTTCTGTTCAAGCGCCATCTAC”, for which the binding signal (RPM ratio (pull-down/input)) was 0.523.

Take “GATGATTGTTCTCCCAGCTGATGAATTGGTCTATTCGAGTAAACAAATTTTCCTAATCTTTCTGTTCAAGCGCCATCTAC”: the binding signal (RPM ratio (pull-down/input)) is 0.712.

For “GATGATTGTTCTCCCAGCTGATGAATTATAGCTCTCGAGTAAACAAATTTTCCTAATCTTTCTGTTCAAGCGCCATCTAC”, the binding signal (RPM ratio (pull-down/input)) stood at 0.514.

In the case of “GATGATTGTTCTCCCAGCTGATGAATTGCGCCGCTCGAGTAAACAAATTTTCCTAATCTTTCTGTTCAAGCGCCATCTAC”, the binding signal (RPM ratio (pull-down/input)) is 2.82.

As for “GATGATTGTTCTCCCAGCTGATGAATTCCTCTCTTCGAGTAAACAAATTTTCCTAATCTTTCTGTTCAAGCGCCATCTAC”, the binding signal (RPM ratio (pull-down/input)) was found to be 0.21.

Take “GATGATTGTTCTCCCAGCTGATGAATTAAGGACCTCGAGTAAACAAATTTTCCTAATCTTTCTGTTCAAGCGCCATCTAC”: the binding signal (RPM ratio (pull-down/input)) turned out to be 0.27.

In the case of “GATGATTGTTCTCCCAGCTGATGAATTCCGGCGATCGAGTAAACAAATTTTCCTAATCTTTCTGTTCAAGCGCCATCTAC”, the binding signal (RPM ratio (pull-down/input)) is 0.388.

Regarding “GATGATTGTTCTCCCAGCTGATGAATTCACCCTCTCGAGTAAACAAATTTTCCTAATCTTTCTGTTCAAGCGCCATCTAC”, the binding signal (RPM ratio (pull-down/input)) worked out at 0.324.

Turning to “GATGATTGTTCTCCCAGCTGATGAATTGCTGATGTCGAGTAAACAAATTTTCCTAATCTTTCTGTTCAAGCGCCATCTAC”, the binding signal (RPM ratio (pull-down/input)) is 0.843.

With “GATGATTGTTCTCCCAGCTGATGAATTAATGTCCTCGAGTAAACAAATTTTCCTAATCTTTCTGTTCAAGCGCCATCTAC”, the binding signal (RPM ratio (pull-down/input)) was found to be 0.913.

Turning to “GATGATTGTTCTCCCAGCTGATGAATTCGGTGGGTCGAGTAAACAAATTTTCCTAATCTTTCTGTTCAAGCGCCATCTAC”, the binding signal (RPM ratio (pull-down/input)) is 0.659.

Consider “GATGATTGTTCTCCCAGCTGATGAATTCAATGTGTCGAGTAAACAAATTTTCCTAATCTTTCTGTTCAAGCGCCATCTAC”, for which the binding signal (RPM ratio (pull-down/input)) stood at 2.05.

For the sequence “GATGATTGTTCTCCCAGCTGATGAATTACAGTTGTCGAGTAAACAAATTTTCCTAATCTTTCTGTTCAAGCGCCATCTAC”, the binding signal (RPM ratio (pull-down/input)) is 1.17.
